In PubChem BioAssay AID1347417 (National Center for Advancing Translational Sciences (NCATS), 2020):
In all, about 120,000 compounds went through this assay and about 5,300 (4.4%) were called active. Inconclusive results, whose numbers are uncertain, are shown with a selection of clear calls. Calls come from the whole dose curve; as a rule, active = well fitted inhibition curve with a large enough effect; inconclusive = small, poorly fitted or top-dose-only effect; inactive = no such curve, though single readings can be large or run the other way. A potency beside an inconclusive call is a rough fit, not a confirmed value.

Assay: qHTS Primary assay for Inhibitors of Plasmodium falciparum Dd2 growth in vitro; note: nearly all actives have a fitted effect of over 65% in size
Details: P. falciparum Dd2 growth, SYBR Green, 72 h; series mostly up to 28.9 µM
Procedure, shortened: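 Infected erythrocytes (Dd2, 0.3% parasitemia, 2.5% hematocrit final) are added to compound in RPMI-1640/Albumax II medium, grown 72 h at 37C in low oxygen, then lysed with saponin/Triton-X containing SYBR Green and read by fluorescence.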
Potency is the fitted concentration of half-maximal effect; tags give direction and shape of the fitted curve.

Structure (SMILES)	Potency
CCn1cc(-c2ccc(C)cc2)cc1C(=O)NCCCN1CCOCC1	inconclusive: 17.8 µM [inhibitor, single point]
Cc1cc(C)n(CCC(=O)NCC2CCN(c3cc(-c4ccccc4)[nH]n3)CC2)n1	active: 11.2 µM
c1ccc(CN2CCC[C@H]2c2nc(-c3ccc(-n4ccnc4)nc3)no2)cc1	inconclusive: 3.16 µM [inhibitor, partial curve, poor fit]
CCC(=O)N1CCc2sc(C(=O)NCCCOC)cc2C1	inactive
CCn1c(CN2CCCCC2)nc2cc(NC(=O)COc3ccccc3C(C)(C)C)ccc21	inconclusive: 8.91 µM [inhibitor, single point]
Cc1c(C(=O)NCc2ccccc2)oc2ccc(S(=O)(=O)N3CCC(C)CC3)cc12	inconclusive: 11.2 µM [inhibitor, single point]
Cc1noc2c(N3CCN(Cc4ccccc4)CC3)cc(-c3cccnc3)nc12	inconclusive: 5.62 µM [inhibitor, single point]
Cc1ccc(NC(=O)Cn2c(SCc3cccc(F)c3)nc3ccncc32)c(C)c1	inactive
COc1ccc(Br)cc1CNC(=O)CN1C(=O)CCCc2ccccc21	inconclusive: 1.78 µM [inhibitor, single point]
COc1cccc(NC(c2nnc(-c3ccccc3)o2)c2ccc(F)cc2Cl)c1 (stereo unspecified)	active: 10 µM
COc1ccc(C(=O)NCC(c2cccnc2)N2CCN(c3ccccc3OC)CC2)cc1 (stereo unspecified)	inconclusive: 17.8 µM [inhibitor, single point]
O=C1NC(=NC2CCCC2)C2(CCN(Cc3ccsc3)C2)N1c1cccnc1 (stereo unspecified)	inconclusive: 0.891 µM [inhibitor, full curve]
CC[C@@]1(O)CCN(C(=O)c2cccc(-c3cccc(OC)c3)c2)C[C@H]1O	inconclusive: 0.447 µM [inhibitor, full curve, poor fit]
NC(=O)c1cccc(-c2ncc3c(n2)OCCN(CC2CC2)C3=O)c1	inconclusive: 2.82 µM [inhibitor, partial curve]
COc1ccc(S(=O)(=O)NC(C)C)cc1-n1cnnn1	inactive
COc1cccc(NC(=O)c2ccnc(-c3nnc4ccc(Nc5ccccc5)nn34)c2)c1	inconclusive: 12.6 µM [inhibitor, single point]
O=C(Nc1ccc(OC(F)(F)F)cc1)C1CCCN(S(=O)(=O)c2ccc(Br)s2)C1 (stereo unspecified)	inconclusive: 11.2 µM [inhibitor, single point]
COc1ccc(C(C(=O)Nc2ccc(C(C)C)cc2)N(C)C(=O)Cc2cccs2)cc1 (stereo unspecified)	inconclusive: 14.1 µM [inhibitor, single point]
CN1CCC(NC(=O)c2nc3nc(-c4ccccc4)c(-c4cccc(O)c4)cc3n2C)CC1	inconclusive: 2.24 µM [inhibitor, full curve, poor fit]
Cc1cccc(N2CCN(C(=O)c3cc4c(=O)[nH]c5ccc(C)cc5c4s3)CC2C)c1 (stereo unspecified)	inconclusive: 15.8 µM [inhibitor, single point]
COc1ccc(CC(=O)N2CCC(Oc3ncccc3C(=O)N3CCCCC3)C2)cc1 (stereo unspecified)	inconclusive: 1.58 µM [inhibitor, full curve, poor fit]
COC(=O)c1ccc2nc(CO[C@H]3CN(Cc4ccccc4C)C[C@H]3F)[nH]c2c1	inconclusive: 3.55 µM [inhibitor, full curve, poor fit]

Structure (SMILES)	Potency
CCc1ccc(C(=O)c2cn(CC(=O)Nc3ccc4c(c3)OCCO4)c3ccc(CC)cc3c2=O)cc1	inconclusive: 17.8 µM [inhibitor, single point]
O=C(Cc1cccc(Cl)c1)N1CCCC(c2nn(-c3cccc(Cl)c3)c(=O)[nH]2)C1 (stereo unspecified)	active: 10 µM
CN1CCN([C@H]2[C@@H]3OC[C@@H](O3)[C@@H](NC(=O)Nc3cccc(C(F)(F)F)c3)[C@@H]2O)CC1	inactive
CC(C)(C)CC(=O)Nc1ccc([C@H]2OCC(=O)N(CCN)[C@@H]2CO)cc1	inactive
CC1CCN(c2ccc(CNC(=O)C3CCCN(Cc4ccncc4)CCC(=O)NCC3)cc2)CC1 (stereo unspecified)	inconclusive: 11.2 µM [inhibitor, single point]
CCN1CC(NC(=O)c2cccc(S(=O)(=O)N(C)CCO)c2)CC1=O (stereo unspecified)	inactive
COc1ccc(CCNC(=O)c2ccc3c(Cl)c4c(nc3c2)CCCC4)cc1OC	active: 11.2 µM
CC(=O)Nc1ccc(NC[C@@H]2C=C(C)[C@H](Cc3nnc(C)o3)C[C@H]2C(C)C)cn1	inconclusive: 14.1 µM [inhibitor, single point]
COc1ccccc1C(=O)Nc1ccnn1C1CCN(c2cnccn2)CC1	inactive
CC1=C(C(=O)OC(C)(C)C)C(c2ccccc2F)N2C(CC(=O)N3CCCC3)=CSC2=N1 (stereo unspecified)	inconclusive: 0.891 µM [inhibitor, full curve, poor fit]
O=C(Nc1cccc(Cl)c1)C1CCN(c2nc3ccccc3nc2C(F)(F)F)CC1	inconclusive: 15.8 µM [inhibitor, single point]
CCc1cccc(NC(=O)c2cc(-c3ccccc3)n[nH]2)c1	inconclusive: 5.01 µM [inhibitor, partial curve]
CC(C)(C)CC(=O)N1CCN2C(=O)c3cc(-c4ccccc4)ccc3NC(=O)[C@H]2C1	inconclusive: 6.31 µM [inhibitor, partial curve, poor fit]
COc1ccc(-n2nc(C)c([C@H]3C=C[C@@H](OC(=O)Nc4cccc(F)c4)C3)c2C)cc1	active: 10 µM
COc1ccc(Cl)cc1-c1ccc2c(c1)C(=O)N1CCN(C(=O)CN)C[C@H]1C(=O)N2	inactive
O=C(NCc1ccccc1Cl)c1ccc2c(c1)N(Cc1ccccc1)C(=O)c1ccccc1S2	inconclusive: 17.8 µM [inhibitor, single point]
CN1CC2(CCCN(C(=O)c3cn(C)c4ccccc34)CC2)OC1=O (stereo unspecified)	inconclusive: 2.82 µM [inhibitor, single point]
COc1ccc(NC(=O)c2c(NCc3cccs3)sc3c2CCCCC3)cc1	inconclusive: 10 µM [inhibitor, single point]
CN(C1CCCCC1)S(=O)(=O)c1ccc(F)c(C(=O)Nc2ccc(C(F)(F)F)cc2)c1	inconclusive: 17.8 µM [inhibitor, single point]
CCCn1cc(-c2ccncc2)cc1C(=O)NC(C)c1ccc(OC)cc1 (stereo unspecified)	active: 7.94 µM
COc1cc2c(cc1OCc1ccccc1)NC(=O)C21CCN(Cc2cccc(O)c2)CC1	inconclusive: 1.41 µM [inhibitor, full curve, poor fit]
CC1CCCCN1C(=O)c1ccc2c(c1)N(Cc1ccc(Cl)cc1)C(=O)c1ccccc1S2=O (stereo unspecified)	inconclusive: 20 µM [inhibitor, single point]

Structure (SMILES)	Potency
CC1=C[C@@H](CN2CCN(c3ccc(F)cc3)CC2)[C@H](C(C)C)C[C@H]1Cc1nnc(-c2cncn2C)o1	inconclusive: 2.24 µM [inhibitor, partial curve, poor fit]
Cc1nnc(N2CCN(c3ccc(Cl)cc3)CC2)c2c1nnn2Cc1ccc(F)cc1	inconclusive: 17.8 µM [inhibitor, single point]
Cc1ccc(C)c(OCC(=O)c2ccc3c(c2)N(CCCC(=O)N2CCCC2)C(=O)CO3)c1C	inconclusive: 3.98 µM [inhibitor, single point]
CC(C)CNC(=O)C(NC(=O)c1ccccc1Cl)C1CCN(C(=O)c2ccc(Cl)cc2)CC1 (stereo unspecified)	inactive
Cc1ccccc1-c1cc(-c2c(C)noc2C)c2cncn2c1	active: 3.16 µM
CCOc1ccccc1N1CC(c2nc3ccccc3n2CCCOc2ccccc2)CC1=O (stereo unspecified)	inactive
CCOc1ncccc1C(=O)N1CC[C@@](O)(C2CCOCC2)[C@H](C)C1	inactive
CCn1ccnc1CN1CCCC(C(=O)Nc2ccccc2-c2ccc(OC)cc2)C1 (stereo unspecified)	inactive
COc1ccc(NC(=O)N2CCCCC2c2n[nH]c(C)n2)cc1 (stereo unspecified)	inactive
CN(C)c1ccc(CN2CCc3nc(N4CCN(c5ccccn5)CC4)ncc3C2)cc1	active: 12.6 µM
Cc1cc(OC(C)C(=O)N2CCN(CCc3ccccn3)CC2)ccc1Cl (stereo unspecified)	inconclusive: 17.8 µM [inhibitor, single point]
Cc1ccccc1Cn1c(=O)n(Cc2ccco2)c(=O)c2oc3ccccc3c21	inactive
CCN1C(=O)N(C2Cc3ccccc3C2)C(=O)C12CCN(Cc1cnn(-c3ccccc3)c1)CC2	inactive
COc1ccc(Cl)cc1C(C(=O)O)N1CCCN(c2ncccn2)CC1 (stereo unspecified)	inactive
CC(=O)Nc1ccc(C2(C(=O)NCc3cccc(Cl)c3)CCC2)cc1	inactive
COCc1noc([C@@H]2CN(C(=O)c3cccc(Cl)c3)C[C@H]2CO)n1	inconclusive: 11.2 µM [inhibitor, partial curve, poor fit]
CCCNC(=O)N1CCc2c(sc3ncnc(N4CCN(C)CC4)c23)C1	inactive
CC(=O)c1ccc(NC(=O)Cn2c(=O)n(-c3ccc(F)cc3)c(=O)c3c2cc(C)n3C)cc1	inactive
CCCCNC(=O)CCCN1C(=O)CCn2nc(-c3cccn3C)cc21	inactive
C=C[C@H]1CN2CC[C@H]1C[C@@H]2CNS(=O)(=O)c1cccs1	inactive
COc1cccc(NC(=O)Cn2c(=O)n(-c3cccc(OC)c3)c(=O)c3sc4ccccc4c32)c1	inconclusive: 17.8 µM [inhibitor, single point]
Cc1ccc(Cl)cc1N1CCN(C2(c3ccccc3)C(=O)c3ccccc3C2=O)CC1	inconclusive: 10 µM [inhibitor, partial curve, poor fit]
